Assay results: the supplement of paper PMC4166925
± gives the standard deviation of the averaged measurements. In all, about 33,000 sequences were measured (“E-score (dimensionless, -0.5 to 0.5)”: median about -0.046, highest 2% from about 0.36 on). Some of the results follow.

test system: T1, SpTbr T-box DNA-binding domain (GST fusion); test: PBM E-score of 8-mer (E-score (dimensionless, -0.5 to 0.5)); Tbr is Tbrain of the sea star Patiria miniata (Pm) or the sea urchin Strongylocentrotus purpuratus (Sp); higher = stronger binding preference; most listed sequences are background and not binding sites; conditions: the construct has about 5 more residues each side
T1 sequence: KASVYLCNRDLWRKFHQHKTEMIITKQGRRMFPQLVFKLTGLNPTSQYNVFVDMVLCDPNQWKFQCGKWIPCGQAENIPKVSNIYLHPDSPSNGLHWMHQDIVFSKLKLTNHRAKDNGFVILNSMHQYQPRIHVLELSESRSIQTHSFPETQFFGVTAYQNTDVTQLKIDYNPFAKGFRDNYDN
Summary of the method: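 Each ungapped 8-mer received an enrichment E-score from the Universal PBM Analysis Suite, averaged over duplicate arrays. The proteins were Tbr T-box DNA-binding domains, covering the whole T-box plus about five flanking residues, fused to GST and expressed in BL21 E. coli at 20 °C before glutathione affinity purification. Universal Agilent oligonucleotide arrays were made double-stranded by primer extension and incubated with 200 nM protein in PBS (pH 7.5). The arrays were then scanned and quantified, and every 8-mer was scored from probe intensities.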

Sequence | PBM E-score of 8-mer
AGCGTACC | -0.2 ± 0.054
CCCGAATC | -0.0381 ± 0.015
GTATGCGA | -0.102 ± 0.054
TCGCCTCA | 0.164 ± 0.032
CTCCGTTA | 0.0633 ± 0.0074
AATCAATC | 0.0621 ± 0.074
GATGTTAA | -0.0106 ± 0.055
ACAGATAA | 0.0988 ± 0.072
AGAGTGTG | 0.375 ± 0.022
ACAGTTAG | 0.0873 ± 0.0094
ACACATAG | 0.306 ± 0.018
GACTCGTA | -0.123 ± 0.017
CACTATGG | 0.0787 ± 0.025
CTTTACGC | 0.0326 ± 0.021
CAATCCAG | -0.021 ± 0.032
CAAAGCGG | -0.173 ± 0.015
AGCGTCAT | 0.129 ± 0.042
TCTGACAA | -0.0245 ± 0.056
CCGTTCCA | -0.0299 ± 0.0058
CGCAACTA | 0.158 ± 0.017
AGCTATTA | -0.0958 ± 0.071
GAGCCTAA | -0.155 ± 0.016

Sequence | PBM E-score of 8-mer
ATAATTCA | 0.0925 ± 0.0082
GAAGGCGC | 0.296 ± 0.052
CGTTAACG | 0.372 ± 0.0041
CAAGAACC | -0.0953 ± 0.051
TGCCGTAA | -0.226 ± 0.091
AAAGACCG | -0.13 ± 0.0059
GAAACTGA | -0.0707 ± 0.037
CCGACCTA | -0.128 ± 0.099
GCACTCCC | 0.128 ± 0.051
ATCGAGAT | -0.0171 ± 0.015
CGCCTTGA | 0.159 ± 0.083
TCGGTCAA | -0.0875 ± 0.048
CGTCGCTA | 0.0767 ± 0.0084
ACATAAGT | 0.0685 ± 0.044
GATTAAGC | -0.162 ± 0.035
AAACTTCA | -0.089 ± 0.03
CTCCCCGA | -0.181 ± 0.056
CAAATCTG | 0.0869 ± 0.0039
AATTTAGC | -0.0817 ± 0.059
ACGCGACG | 0.222 ± 0.0027
CACTACAA | 0.0532 ± 0.042
AAAGTTCT | -0.194 ± 0.018

Sequence | PBM E-score of 8-mer
ACGGCGAT | -0.0576 ± 0.054
CGAGTCTC | -0.153 ± 0.02
CGACCTAA | -0.0684 ± 0.14
GTTTATAA | -0.153 ± 0.038
ACCCGTGC | 0.0692 ± 0.004
CAAGATTG | 0.1263 ± 0.00035
CCTGCAGG | -0.124 ± 0.058
CATAGTCA | -0.00255 ± 0.035
AGAAGAGG | -0.174 ± 0.039
ATAACTAC | -0.117 ± 0.085
CACCCCTC | 0.276 ± 0.076
GCCACCGC | 0.0467 ± 0.069
ATCGGTTA | -0.111 ± 0.0098
GAAGAAAA | -0.106 ± 0.013
CTTTATTC | -0.169 ± 0.063
CCCTGGCC | -0.191 ± 0.056
CATAGGAC | -0.22 ± 0.081
CAGAACGA | -0.0832 ± 0.089
AGATCGCC | 0.142 ± 0.045
AGAAACCA | -0.141 ± 0.077
GGGGAAAA | -0.0922 ± 0.036
ATCCTAGC | 0.0257 ± 0.025

Sequence | PBM E-score of 8-mer
GTTCTACA | -0.0119 ± 0.053
CGGCTGCA | -0.0602 ± 0.094
CCCATACA | -0.308 ± 0.0056
ACCTAAAC | 0.171 ± 0.033
ATGCCTGG | -0.371 ± 0.046
GCTACGTA | -0.199 ± 0.018
ACTTGCAT | -0.0966 ± 0.0011
ATTGCAGC | -0.0538 ± 0.047
ACAGCGGG | 0.096 ± 0.033
CTAGTGAG | 0.119 ± 0.034
CTTAACTA | 0.0561 ± 0.019
ATCTTAAG | -0.0417 ± 0.086
CGTCTGAC | -0.104 ± 0.0052
CAGGTGGA | 0.0117 ± 0.025
TGTAACAA | 0.167 ± 0.069
ATCAGAAA | -0.0707 ± 0.098
AACGCCCC | 0.243 ± 0.04
ATTCTCAG | 0.0379 ± 0.094
AATAGGGC | -0.232 ± 0.02
ACTTTCAT | 0.00339 ± 0.062
AAAGGCAT | -0.0371 ± 0.035
AGCTGAGC | -0.255 ± 0.096

Sequence | PBM E-score of 8-mer
CTGCGATC | 0.106 ± 0.1
GGAGGCGA | 0.133 ± 0.011
AATCCTTG | -0.166 ± 0.063
ATTTGCTG | -0.124 ± 0.061
TCGCCAAA | 0.00542 ± 0.097
CCTCATTA | -0.227 ± 0.011
AATATCAC | 0.192 ± 0.094
CAGCGACC | -0.104 ± 0.0053
AAGTCAAC | 0.0738 ± 0.0042
AGTTCTCG | 0.238 ± 0.0057
ACGGCTCT | -0.0708 ± 0.02
CAATAAGA | -0.213 ± 0.055
ATCCCCGA | -0.195 ± 0.031
ATACTTCA | -0.13 ± 0.07
ATCTTAAA | -0.0879 ± 0.054
GAGCCCCC | -0.215 ± 0.031
CCTTGCTA | -0.0565 ± 0.096
CAAGCGGA | -0.158 ± 0.079
GGGGCACC | -0.127 ± 0.1
ATACAATG | -0.0308 ± 0.011
AATGGGAA | -0.188 ± 0.032
